Results as given in the supplement of paper PMC12217912.
The other results are listed elsewhere or left out. Sequences were assembled here from the parent chain. Values near 0.05 are background.

B1: TEV protease; numbered along this chain (parent)
chain: MGESLFKGPRDYNPISSSICHLTNESDGHTTSLYGIGFGPFIITNKHLFRRNNGTLVVQSLHGVFKVKDTTTLQQHLVDGRDMIIIRMPKDFPPFPQKLKFREPQREERICLVTTNFQTKSMSSMVSDTSCTFPSGDGIFWKHWIQTKDGQCGSPLVSTRDGFIVGIHSASNFTNTNNYFTSVPKNFMELLTNQEAQQWVSGWRLNADSVLWGGHKVFMVKPEEPFQPVKEATQL

Variants of: B1
Assay: raw area under fraction-flipped curve 0-4 h after induction (AUC4h, not background-subtracted), DNA-recorder readout of cleavage of the substrate (dimensionless); higher = more cleavage of the substrate by the protease variant
Conditions: temperature: 34 °C; time window: 0-4 h after rhamnose induction
Procedure: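 In vivo DNA recorder in E. coli TOP10(DE3) ΔrhaA at 34 °C. Each TEVp single-site mutant (parent TEVp 0) is paired with a single-site variant of the 7-mer TEVs (canonical ENLYFQ|S). The substrate sits between flexible linkers in a Bxb1-sfGFP-TEVs-SsrA fusion, so cleavage stabilises Bxb1 and speeds flipping of a recombination array, read by NGS. The value is the raw area under the fraction-flipped curve over 0-4 h after rhamnose induction (AUC4h), with ≥20 reads per time point. It is not background-subtracted; inactive controls average about 0.047.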
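Also: Bxb1 expression induced with 0.2% (w/v) L-rhamnose at OD600 near 0.5, cultures sampled hourly, flipped fraction per protease–substrate barcode pair counted by paired-end Illumina sequencing.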

M125D
area with substrate ENAYFQS: 0.0632
area with substrate ENCYFQS: 0.068
area with substrate ENDYFQS: 0.0649
area with substrate ENEYFQS: 0.0636
area with substrate ENFYFQS: 0.0504
area with substrate ENGYFQS: 0.0607
area with substrate ENHYFQS: 0.051
area with substrate ENIYFQS: 0.0988
area with substrate ENKYFQS: 0.0365
area with substrate ENMYFQS: 0.0837
area with substrate ENNYFQS: 0.0757
area with substrate ENPYFQS: 0.0728
area with substrate ENQYFQS: 0.0575
area with substrate ENRYFQS: 0.0639
area with substrate ENSYFQS: 0.0605
area with substrate ENTYFQS: 0.0663
area with substrate ENVYFQS: 0.0664

K120V
area with substrate ENAYFQS: 0.0597
area with substrate ENDYFQS: 0.0608
area with substrate ENEYFQS: 0.0606
area with substrate ENFYFQS: 0.0495
area with substrate ENGYFQS: 0.062
area with substrate ENHYFQS: 0.0567
area with substrate ENKYFQS: 0.0607
area with substrate ENNYFQS: 0.0524
area with substrate ENPYFQS: 0.0661
area with substrate ENQYFQS: 0.0594
area with substrate ENRYFQS: 0.0603
area with substrate ENSYFQS: 0.0612
area with substrate ENVYFQS: 0.0751

K120C
area with substrate ENAYFQS: 0.0562
area with substrate ENCYFQS: 0.0789
area with substrate ENEYFQS: 0.109
area with substrate ENFYFQS: 0.0666
area with substrate ENHYFQS: 0.059
area with substrate ENKYFQS: 0.0663
area with substrate ENQYFQS: 0.0897
area with substrate ENRYFQS: 0.0488
area with substrate ENSYFQS: 0.0697
area with substrate ENTYFQS: 0.0628
area with substrate ENVYFQS: 0.0768
area with substrate ENWYFQS: 0.0601

K120D
area with substrate ENAYFQS: 0.0678
area with substrate ENCYFQS: 0.0645
area with substrate ENDYFQS: 0.0592
area with substrate ENEYFQS: 0.0644
area with substrate ENFYFQS: 0.0573
area with substrate ENHYFQS: 0.06
area with substrate ENKYFQS: 0.0606
area with substrate ENNYFQS: 0.0507
area with substrate ENPYFQS: 0.0466
area with substrate ENRYFQS: 0.0681
area with substrate ENSYFQS: 0.0638
area with substrate ENTYFQS: 0.0815
area with substrate ENYYFQS: 0.0593

K120T
area with substrate ENAYFQS: 0.0672
area with substrate ENCYFQS: 0.0633
area with substrate ENDYFQS: 0.045
area with substrate ENEYFQS: 0.049
area with substrate ENGYFQS: 0.0625
area with substrate ENHYFQS: 0.0686
area with substrate ENKYFQS: 0.0757
area with substrate ENMYFQS: 0.0719
area with substrate ENRYFQS: 0.0698
area with substrate ENTYFQS: 0.0641
area with substrate ENYYFQS: 0.0476

K120A
area with substrate ENAYFQS: 0.0149
area with substrate ENCYFQS: 0.069
area with substrate ENDYFQS: 0.0573
area with substrate ENEYFQS: 0.0602
area with substrate ENFYFQS: 0.0556
area with substrate ENIYFQS: 0.131
area with substrate ENKYFQS: 0.0422
area with substrate ENNYFQS: 0.0501
area with substrate ENPYFQS: 0.0361
area with substrate ENQYFQS: 0.0651
area with substrate ENSYFQS: 0.0575
area with substrate ENTYFQS: 0.0672
area with substrate ENVYFQS: 0.0854
area with substrate ENYYFQS: 0.0292

T119E
area with substrate ENAYFQS: 0.0678
area with substrate ENCYFQS: 0.0732
area with substrate ENDYFQS: 0.059
area with substrate ENEYFQS: 0.0592
area with substrate ENFYFQS: 0.0766
area with substrate ENHYFQS: 0.0563
area with substrate ENNYFQS: 0.0571
area with substrate ENRYFQS: 0.056
area with substrate ENVYFQS: 0.0483
area with substrate ENYYFQS: 0.0474

T119I
area with substrate ENAYFQS: 0.0665
area with substrate ENDYFQS: 0.0679
area with substrate ENEYFQS: 0.0319
area with substrate ENFYFQS: 0.0677
area with substrate ENGYFQS: 0.0644
area with substrate ENHYFQS: 0.0656
area with substrate ENNYFQS: 0.0836
area with substrate ENPYFQS: 0.0682
area with substrate ENQYFQS: 0.0595
area with substrate ENSYFQS: 0.0218
area with substrate ENTYFQS: 0.0658
area with substrate ENVYFQS: 0.0665
area with substrate ENWYFQS: 0.0444
area with substrate ENYYFQS: 0.0579

T119F
area with substrate ENAYFQS: 0.0771
area with substrate ENCYFQS: 0.0636
area with substrate ENEYFQS: 0.0593
area with substrate ENIYFQS: 0.119
area with substrate ENMYFQS: 0.0761
area with substrate ENQYFQS: 0.0473
area with substrate ENYYFQS: 0.0577

T119M
area with substrate ENAYFQS: 0.0501
area with substrate ENDYFQS: 0.0613
area with substrate ENSYFQS: 0.0704

P134Y
area with substrate ENAYFQS: 0.0615
area with substrate ENCYFQS: 0.079
area with substrate ENDYFQS: 0.0648
area with substrate ENEYFQS: 0.0562
area with substrate ENFYFQS: 0.0649
area with substrate ENGYFQS: 0.0603
area with substrate ENHYFQS: 0.0692
area with substrate ENIYFQS: 0.0639
area with substrate ENKYFQS: 0.0519
area with substrate ENMYFQS: 0.0923
area with substrate ENNYFQS: 0.0613
area with substrate ENPYFQS: 0.0582
area with substrate ENQYFQS: 0.0475
area with substrate ENRYFQS: 0.0557
area with substrate ENSYFQS: 0.0643
area with substrate ENTYFQS: 0.0659
area with substrate ENVYFQS: 0.042
area with substrate ENYYFQS: 0.0683

P134T
area with substrate ENAYFQS: 0.055
area with substrate ENEYFQS: 0.0645
area with substrate ENFYFQS: 0.0595
area with substrate ENGYFQS: 0.0602
area with substrate ENHYFQS: 0.0748
area with substrate ENKYFQS: 0.0676
area with substrate ENNYFQS: 0.0701
area with substrate ENQYFQS: 0.0572
area with substrate ENSYFQS: 0.0744
area with substrate ENTYFQS: 0.0508

P134C
area with substrate ENAYFQS: 0.062
area with substrate ENCYFQS: 0.06
area with substrate ENDYFQS: 0.0595
area with substrate ENEYFQS: 0.0506
area with substrate ENFYFQS: 0.0885
area with substrate ENGYFQS: 0.0516
area with substrate ENHYFQS: 0.0528
area with substrate ENIYFQS: 0.094
area with substrate ENMYFQS: 0.0808
area with substrate ENNYFQS: 0.0579
area with substrate ENPYFQS: 0.0578
area with substrate ENQYFQS: 0.0572
area with substrate ENRYFQS: 0.0673
area with substrate ENSYFQS: 0.0591
area with substrate ENVYFQS: 0.0682
area with substrate ENWYFQS: 0.0618
area with substrate ENYYFQS: 0.0565

L112T
area with substrate ENAYFQS: 0.0616
area with substrate ENCYFQS: 0.0609
area with substrate ENDYFQS: 0.0507
area with substrate ENEYFQS: 0.0753
area with substrate ENFYFQS: 0.0585
area with substrate ENGYFQS: 0.0575
area with substrate ENHYFQS: 0.071
area with substrate ENIYFQS: 0.0425
area with substrate ENKYFQS: 0.0553
area with substrate ENNYFQS: 0.0535
area with substrate ENPYFQS: 0.0687
area with substrate ENQYFQS: 0.0497
area with substrate ENRYFQS: 0.0661
area with substrate ENSYFQS: 0.0618
area with substrate ENTYFQS: 0.0636
area with substrate ENWYFQS: 0.0591
area with substrate ENYYFQS: 0.0537
